Measurements from the supplement of paper PMC10126150.
Values marked as one replicate rest on one cluster of the flow cell; about a third of the high ones do not repeat.
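Note: ATP exposure 15 min at 22 °C before imaging.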

Each sequence was assayed on ATP (assay: switch fluorescence ratio, 500 uM ATP over buffer (Cy3 cluster intensity, sum of 5 cycles each) (fold (ratio)); higher = stronger signal-on switching upon ATP binding; sequences stand for … in TCGTCGGCAGCGTCAGATGTGTATAAGAGACAGTTTTTTTTTTTTTTTTTTTTTTTTT…TC). Settings: aptamer strand: ATP DNA aptamer (quencher-CACCTGGGGGAGTATTGCGGAGGAAGG + anchor), 100 nM annealed; ATP concentration: 500 uM; one replicate.
In short: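 The quencher-labelled ATP aptamer, at 100 nM, was annealed to Cy3-labelled switching-strand clusters on a modified Illumina MiSeq flow-cell. The clusters were imaged in selection buffer, then after 15 min with 500 uM ATP at 22 °C, and this buffer/ATP cycle ran five times with NaOH stripping and re-annealing between runs. Per-cluster fluorescence ratios, summed target-cycle over summed buffer-cycle Cy3 intensity, were averaged per switch-domain sequence. Clusters outside 100-1000 RFU were excluded.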
CCGTCGTAAC was tested, and the switch fluorescence ratio was 3.42.
In the case of CGAGGGCGAG, the switch fluorescence ratio is reported as 1.01.
TCAGGACTGC was tested, and the switch fluorescence ratio was 0.987.
For TCAGCACATT, the switch fluorescence ratio was 1.04.
Work on TGAACTGGGC yielded a switch fluorescence ratio of 1.21.
With CCGAATCCCT the switch fluorescence ratio was 1.04.
GGTGACTGTG showed a switch fluorescence ratio of 0.892.
For TCAGGTCAGT, the switch fluorescence ratio was 0.993.
For TCGCGGGGTA, the switch fluorescence ratio was 1.04.
Work on GACTTGGGCC yielded a switch fluorescence ratio of 1.03.
Work on AGCCAACGAC yielded a switch fluorescence ratio of 1.36.
In the case of TACTTTCACG, the switch fluorescence ratio is reported as 1.28.
Work on GGGAGGCGGA yielded a switch fluorescence ratio of 1.01.
Sequence TATGGAGTCG has a switch fluorescence ratio of 0.981.
GCCACAAGGT gave a switch fluorescence ratio of 1.04.
With CCGAGAGTTA the switch fluorescence ratio was 1.18.
ATTTGATCTT was tested, and the switch fluorescence ratio was 1.01.
For AACGCATGGT, the switch fluorescence ratio was 1.05.
Work on TATATATTGG yielded a switch fluorescence ratio of 1.01.
With GGGAGAAGCT the switch fluorescence ratio was 1.06.
In the case of TAGGCATGGT, the switch fluorescence ratio is reported as 0.999.
AAAATAAGGG showed a switch fluorescence ratio of 1.06.
Sequence TCATAGACCG has a switch fluorescence ratio of 1.06.
Sequence CTGCTTCCCA has a switch fluorescence ratio of 1.03.
AGTAACTCGC gave a switch fluorescence ratio of 0.975.
CGTGGCATTA showed a switch fluorescence ratio of 1.11.
AGCGCCCGCC was tested, and the switch fluorescence ratio was 1.02.
GAAAAAGAAA was tested, and the switch fluorescence ratio was 0.923.
TTATCAGGCC gave a switch fluorescence ratio of 0.965.
Sequence CAAAGATGTA has a switch fluorescence ratio of 0.948.
ATGGACTGTT gave a switch fluorescence ratio of 1.05.
With ACTTTATAGT the switch fluorescence ratio was 1.05.
Work on TCAGAACTTT yielded a switch fluorescence ratio of 0.971.
CGTGAAGTGG showed a switch fluorescence ratio of 0.966.
With TGTTTTTTCC the switch fluorescence ratio was 1.13.
With CATTGTCGGA the switch fluorescence ratio was 0.966.
With GACTGATCA the switch fluorescence ratio was 0.927.
For GGCTAATATT, the switch fluorescence ratio was 1.02.
For TCTCGATTG, the switch fluorescence ratio was 1.01.
TACCCGCCGT showed a switch fluorescence ratio of 1.12.
With CTTAGCGCAG the switch fluorescence ratio was 0.972.
Work on GTCGCACGTC yielded a switch fluorescence ratio of 0.999.
AATTTATTAA gave a switch fluorescence ratio of 0.962.
TCACAAGCTA gave a switch fluorescence ratio of 1.11.
With CTGTACGCAC the switch fluorescence ratio was 3.16.
With TGTGGGCTTT the switch fluorescence ratio was 0.949.
In the case of TTTTGAGCCT, the switch fluorescence ratio is reported as 1.04.
For AATCGGCTTG, the switch fluorescence ratio was 1.02.
With TGAAAGTATA the switch fluorescence ratio was 1.05.
ACTGACTTGT gave a switch fluorescence ratio of 1.03.
Work on TACGAGTTCA yielded a switch fluorescence ratio of 1.
In the case of GCCATTTGTG, the switch fluorescence ratio is reported as 1.
For TTTCCACTGC, the switch fluorescence ratio was 1.08.
With GGTTGCATGG the switch fluorescence ratio was 1.01.
Work on ATCATCCCTG yielded a switch fluorescence ratio of 0.995.
Sequence TGATGGCAAG has a switch fluorescence ratio of 1.01.
With ATCTGGTTTA the switch fluorescence ratio was 1.04.
GTTCACGAGC showed a switch fluorescence ratio of 0.99.
TGTTTATATG showed a switch fluorescence ratio of 0.943.
For ATACTAGTCG, the switch fluorescence ratio was 1.08.
TATGCTGGTA gave a switch fluorescence ratio of 0.964.
Work on CGCAAGTGCG yielded a switch fluorescence ratio of 1.13.
For GGCTTTTATT, the switch fluorescence ratio was 0.999.
Sequence TTCTCGAGA has a switch fluorescence ratio of 0.999.
Sequence TTGTACTTTA has a switch fluorescence ratio of 1.02.
Work on AGTCATGAAC yielded a switch fluorescence ratio of 0.975.
ATGTTGGTT was tested, and the switch fluorescence ratio was 0.973.
In the case of GGAATGATGG, the switch fluorescence ratio is reported as 0.979.
Sequence ATAAAATGCA has a switch fluorescence ratio of 0.999.
For ACTTCTGAGC, the switch fluorescence ratio was 1.24.
ACACCTTCCT was tested, and the switch fluorescence ratio was 2.86.
Work on TAATACGATG yielded a switch fluorescence ratio of 1.02.
TTATAGCACA was tested, and the switch fluorescence ratio was 1.04.
TTACTCTACG gave a switch fluorescence ratio of 1.37.
CCACACCACT gave a switch fluorescence ratio of 1.38.
TATTGCACAG was tested, and the switch fluorescence ratio was 1.02.
TACAAGAGCT was tested, and the switch fluorescence ratio was 0.995.
In the case of CGAAACCTGT, the switch fluorescence ratio is reported as 1.11.
ACATTCTCCA showed a switch fluorescence ratio of 1.01.
GGACGCATCA was tested, and the switch fluorescence ratio was 1.12.
Sequence TGGTAGGGAG has a switch fluorescence ratio of 0.988.
With ATTACCTAGG the switch fluorescence ratio was 1.03.
In the case of TTGCGATTAG, the switch fluorescence ratio is reported as 0.995.
GGGCAAATCG was tested, and the switch fluorescence ratio was 1.04.
Sequence ATACACGGGC has a switch fluorescence ratio of 1.11.
Sequence GAAATAGCAG has a switch fluorescence ratio of 0.987.
Sequence GTCATCTGCA has a switch fluorescence ratio of 1.03.
AACCTTTTTG gave a switch fluorescence ratio of 1.06.
CACATTTCAG was tested, and the switch fluorescence ratio was 0.949.
Sequence ACCACCGATT has a switch fluorescence ratio of 1.05.
GGATAGGTTC gave a switch fluorescence ratio of 1.16.
TAGTTACCG was tested, and the switch fluorescence ratio was 1.01.
Work on ACACCTCATT yielded a switch fluorescence ratio of 1.03.
With TTGATTTACC the switch fluorescence ratio was 1.05.
ATACTATAAT gave a switch fluorescence ratio of 0.99.
In the case of GACGAAGCT, the switch fluorescence ratio is reported as 1.08.
CTGTAGAGC showed a switch fluorescence ratio of 1.07.
In the case of AACGGTTTT, the switch fluorescence ratio is reported as 1.03.
In the case of CATCAGAAAA, the switch fluorescence ratio is reported as 1.61.
AGATCCAGCA was tested, and the switch fluorescence ratio was 1.05.
For ATTAGAAACG, the switch fluorescence ratio was 1.01.
CCTTCAGGGA showed a switch fluorescence ratio of 0.965.
ATGGGGCCAT was tested, and the switch fluorescence ratio was 1.02.
Work on GCATAGATAA yielded a switch fluorescence ratio of 0.99.
GCTGGGTCTA was tested, and the switch fluorescence ratio was 1.06.
For AGGGGGTATA, the switch fluorescence ratio was 0.973.
Work on AATTGATCGA yielded a switch fluorescence ratio of 1.06.
Sequence GTGTAAAGGT has a switch fluorescence ratio of 0.994.
ATCGCAAATT was tested, and the switch fluorescence ratio was 1.14.
TTGATAACTG was tested, and the switch fluorescence ratio was 1.06.
For AATTATGCCC, the switch fluorescence ratio was 1.1.
In the case of TGCGCGACCC, the switch fluorescence ratio is reported as 1.41.
In the case of TGCAGCTGAG, the switch fluorescence ratio is reported as 0.965.
Work on ACACCCGCCG yielded a switch fluorescence ratio of 1.11.
Work on AGATAGTCAC yielded a switch fluorescence ratio of 1.01.
CTTGTTTAGG showed a switch fluorescence ratio of 0.999.
Sequence GTTCGAAATG has a switch fluorescence ratio of 1.
In the case of GAAGGTTCAG, the switch fluorescence ratio is reported as 0.955.
GAGTTGGCTT was tested, and the switch fluorescence ratio was 1.01.
For AGGGCAACTA, the switch fluorescence ratio was 1.
Work on AGACAGGGTG yielded a switch fluorescence ratio of 0.981.
Work on CCAGTGGAG yielded a switch fluorescence ratio of 0.989.
With ATAAGCGTC the switch fluorescence ratio was 0.952.
GTTATCGGAA showed a switch fluorescence ratio of 1.03.
Sequence GCTGCCCGGC has a switch fluorescence ratio of 1.02.
In the case of TGAGAGTGTC, the switch fluorescence ratio is reported as 1.04.
AGCCATTTTA gave a switch fluorescence ratio of 0.974.
GTAAAGTCCG showed a switch fluorescence ratio of 0.955.
Work on TGACGTGCA yielded a switch fluorescence ratio of 1.02.
Work on TATCGTGGCC yielded a switch fluorescence ratio of 0.965.
Work on GGAGCAAGGT yielded a switch fluorescence ratio of 3.81.
GTTTTCGGAG showed a switch fluorescence ratio of 1.01.
CCTCCACGGG showed a switch fluorescence ratio of 3.78.
GATAACATGC was tested, and the switch fluorescence ratio was 0.993.
Sequence TGACAGAGGC has a switch fluorescence ratio of 1.01.
With TCGGTG the switch fluorescence ratio was 0.986.
With GTGTACTGAT the switch fluorescence ratio was 0.993.
For ACTTGCGTAA, the switch fluorescence ratio was 0.995.
Sequence TTAGTTGCGG has a switch fluorescence ratio of 1.06.
AGGCGAGGTT showed a switch fluorescence ratio of 0.989.
With CCACGATTGA the switch fluorescence ratio was 1.03.
TAGCTATACG gave a switch fluorescence ratio of 1.48.
CGTTTCAGAA gave a switch fluorescence ratio of 1.02.
Work on GCTGGGTCAG yielded a switch fluorescence ratio of 0.989.
TTTGCGCCTG was tested, and the switch fluorescence ratio was 0.96.
ATGGCTCAGG gave a switch fluorescence ratio of 1.05.
For GCCCTTACAC, the switch fluorescence ratio was 1.05.
ACCATATGGT showed a switch fluorescence ratio of 1.03.
Sequence AGCCGCGGCA has a switch fluorescence ratio of 0.981.
Sequence ACACAGTTAC has a switch fluorescence ratio of 1.21.
Work on AGTCCTTGCC yielded a switch fluorescence ratio of 1.09.
AAAGTCGAAT was tested, and the switch fluorescence ratio was 1.01.
Work on TAAGAAAAAC yielded a switch fluorescence ratio of 1.03.
AACGAGTTCG was tested, and the switch fluorescence ratio was 0.991.
Sequence CACCCTGTAA has a switch fluorescence ratio of 1.03.
Sequence ATGCCATTTT has a switch fluorescence ratio of 1.01.
In the case of TGAGGGCACC, the switch fluorescence ratio is reported as 1.12.
CTGACGGGCG was tested, and the switch fluorescence ratio was 0.88.
TGGTAATAAA gave a switch fluorescence ratio of 1.04.
GATGCCCCA gave a switch fluorescence ratio of 1.02.
Work on TCATCTATGC yielded a switch fluorescence ratio of 1.01.
With ACCAGGATAG the switch fluorescence ratio was 1.07.
Work on CCAGAGAAGC yielded a switch fluorescence ratio of 1.06.
For GGCTCACGAC, the switch fluorescence ratio was 1.06.
GGGATCTTTG gave a switch fluorescence ratio of 0.998.
TGGAGGAGA gave a switch fluorescence ratio of 1.08.
In the case of CGGTCAAGTC, the switch fluorescence ratio is reported as 1.
CTGAATTTTA was tested, and the switch fluorescence ratio was 1.
With ACATGACCTA the switch fluorescence ratio was 1.17.
With CTTCCTCTTG the switch fluorescence ratio was 2.21.
AGTGGAGTTT gave a switch fluorescence ratio of 1.03.
For GCTTTAATA, the switch fluorescence ratio was 0.999.
For TGGCAGAAAA, the switch fluorescence ratio was 1.03.
GTACGCTTCC showed a switch fluorescence ratio of 2.26.
CTTACTCTAT gave a switch fluorescence ratio of 1.1.
Sequence TTGCACTTCA has a switch fluorescence ratio of 1.04.
With AACACTGGCA the switch fluorescence ratio was 1.04.
TTTCATTCGT showed a switch fluorescence ratio of 1.04.
With AAGCTTCAT the switch fluorescence ratio was 1.16.
For CTGAGGGATA, the switch fluorescence ratio was 1.08.
TATGCCCGAA gave a switch fluorescence ratio of 1.01.
TTTAAGATTC was tested, and the switch fluorescence ratio was 1.
In the case of AGTCGGGTTA, the switch fluorescence ratio is reported as 0.938.
TGGTTCCCTC showed a switch fluorescence ratio of 0.962.
For TAAATTGAAG, the switch fluorescence ratio was 0.975.
Sequence TAACTATTCA has a switch fluorescence ratio of 1.03.
GCGGGTCTTG gave a switch fluorescence ratio of 1.
Work on TTCTGCTGGG yielded a switch fluorescence ratio of 1.61.
AATGCGGGG gave a switch fluorescence ratio of 0.971.
In the case of ATGTCAATTC, the switch fluorescence ratio is reported as 1.06.
GCAGACGTGA showed a switch fluorescence ratio of 0.991.
Work on TTTGCCCGCG yielded a switch fluorescence ratio of 0.955.
TAGGTAGGAA gave a switch fluorescence ratio of 0.982.
With GATTCCCATA the switch fluorescence ratio was 0.978.
Sequence TAGACTTCCT has a switch fluorescence ratio of 0.985.
Sequence CATTTTGGTG has a switch fluorescence ratio of 1.03.
CGCCGTCGCC was tested, and the switch fluorescence ratio was 1.07.
Sequence AGATATGCAC has a switch fluorescence ratio of 1.05.
GAGGGCTCAG gave a switch fluorescence ratio of 0.993.
For ATAAGTTCGG, the switch fluorescence ratio was 1.03.
In the case of TTATGTCGTG, the switch fluorescence ratio is reported as 0.981.
